# According to the antibiotic and cytotoxicity screens of Wong et al. (2023):
# This is one part of the list.
# Legend:
# [1] = system: HSkMC (human skeletal muscle cells); experiment: cytotoxicity call (relative viability < 0.9); settings: 10 µM
# [2] = system: HepG2; experiment: cytotoxicity call (relative viability < 0.9); settings: 10 µM
# [3] = system: S. aureus RN4220; experiment: growth inhibition call (relative growth <= 0.2); settings: 50 µM
Structure (SMILES),cytotoxicity call [1],cytotoxicity call [2],growth inhibition call [3]
Cc1ccc(-c2ccc3c(c2)O[C@@H](CN(C)C(=O)NC(C)C)[C@@H](C)CN([C@@H](C)CO)S3(=O)=O)cc1,inactive,inactive,inactive
C[C@H]1CN([C@@H](C)CO)C(=O)c2cc(NS(=O)(=O)c3cn(C)cn3)ccc2O[C@@H]1CN(C)S(=O)(=O)c1ccc(Cl)cc1,inactive,inactive,inactive
Cn1cc(-c2nc(N[C@@H]3CCCC[C@@H]3N)c(F)c3c2C(=O)NC3)cn1,inactive,inactive,inactive
COCC(=O)N1CC(=O)N2[C@H](CO)[C@@H](c3ccc(C#Cc4cccnc4)cc3)[C@@H]2C1,inactive,inactive,inactive
Cc1noc(C)c1NC(=O)Nc1ccc2c(c1)C(=O)N([C@@H](C)CO)C[C@H](C)[C@H](CN(C)C(=O)C1CCCCC1)OCCCC[C@H](C)O2,inactive,inactive,inactive
C[C@@H]1CN([C@@H](C)CO)C(=O)c2cc(NS(C)(=O)=O)ccc2O[C@@H](C)CCCCO[C@H]1CN(C)C(=O)CCCN(C)C,inactive,inactive,inactive
C[C@@H]1CCCCO[C@H](CN(C)S(C)(=O)=O)[C@@H](C)CN([C@H](C)CO)C(=O)c2cc(NC(=O)Nc3ccc(C(F)(F)F)cc3)ccc2O1,inactive,inactive,inactive
C[C@@H]1CN([C@H](C)CO)C(=O)c2cc(NC(=O)Nc3cccc4ccccc34)ccc2O[C@@H](C)CCCCO[C@@H]1CN(C)Cc1ccccc1,inactive,inactive,inactive
Cc1noc(C)c1NC(=O)Nc1ccc2c(c1)C(=O)N([C@H](C)CO)C[C@H](C)[C@H](CN(C)Cc1ccc(C(F)(F)F)cc1)OCCCC[C@H](C)O2,inactive,inactive,inactive
COCC#Cc1ccc2c(c1)O[C@H](CN(C)C(=O)Nc1ccccc1F)[C@@H](C)CN([C@@H](C)CO)S2(=O)=O,inactive,inactive,inactive
C=c1cc(C)ccc1=C1NN=C(N)O1,inactive,inactive,inactive
Cc1noc(C)c1S(=O)(=O)N(C)C[C@H]1Oc2ccc(NS(=O)(=O)c3cccs3)cc2CC(=O)N([C@H](C)CO)C[C@@H]1C,inactive,inactive,inactive
O=C(C[C@@H]1CC[C@@H]2[C@H](COC[C@@H](O)CN2S(=O)(=O)c2cccc(Cl)c2)O1)NCc1ccncn1,inactive,inactive,inactive
CC[C@@H](C)SSc1ncc[nH]1,active,inactive,active
C[C@@H]1CCCCO[C@@H](CN(C)Cc2ccncc2)[C@H](C)CN([C@@H](C)CO)C(=O)c2cc(NC(=O)Nc3ccc(F)cc3)ccc2O1,inactive,inactive,inactive
O=C(N[C@@H]1CC=CC[C@H](CC(=O)N(CCO)Cc2ccccc2)C(=O)NC[C@H](c2ccccc2)OC1=O)OCC1c2ccccc2-c2ccccc21,inactive,inactive,inactive
COc1ccc2c3c(n(c2c1)C)[C@@H](CO)N(C[C@]13CCN(CC1)C(=O)CC1CC1)C(=O)CN1CCOCC1,inactive,inactive,inactive
C[C@@H]1CCCCO[C@@H](CN(C)S(C)(=O)=O)[C@H](C)CN([C@@H](C)CO)C(=O)c2cc(NS(=O)(=O)c3ccc(F)cc3)ccc2O1,inactive,inactive,inactive
C[C@H](CO)N1C[C@H](C)[C@H](CN(C)S(=O)(=O)c2cn(C)cn2)Oc2cc(C#Cc3cccc(F)c3)ccc2S1(=O)=O,inactive,inactive,inactive
C[C@@H]1CN([C@@H](C)CO)C(=O)c2cccc(NC(=O)Nc3ccc(F)cc3)c2O[C@@H]1CN(C)Cc1ccc(-c2ccccc2)cc1,active,active,inactive
C[C@H](CO)N1C[C@H](C)[C@@H](CN(C)C(=O)Nc2ccc(C(F)(F)F)cc2)Oc2c(NC(=O)Nc3cccc4ccccc34)cccc2C1=O,active,active,inactive
COc1ccc(S(=O)(=O)Nc2ccc3c(c2)C(=O)N([C@@H](C)CO)C[C@@H](C)[C@H](CN(C)S(=O)(=O)c2ccc(Cl)cc2)OCCCC[C@H](C)O3)cc1,inactive,inactive,inactive
Cn1nnc(NCc2ccccc2)n1,inactive,inactive,inactive
C[C@@H]1CCCCO[C@H](CN(C)C(=O)c2ccccc2)[C@H](C)CN([C@H](C)CO)C(=O)c2cc(NS(=O)(=O)c3cccs3)ccc2O1,inactive,inactive,inactive
O=CN[C@H](Cc1ccccc1)C(=O)O,inactive,inactive,inactive
